# Results from article PMC4336329 (PLoS ONE, 2015).
# The whole screen tested about 310,000 compounds, of which about 2,200 (0.71%) showed an effect of 50% or more. The effect is printed as a negative number. This is one part of the list.
# Biological target: human ether-à-go-go-related gene (hERG) potassium channel (human, UniProt Q12809)
# Assay: primary screen, population patch clamp on CHO cells stably expressing hERG
# human ether-à-go-go-related gene (hERG) potassium channel, sequence (Q12809 whole entry, looked up): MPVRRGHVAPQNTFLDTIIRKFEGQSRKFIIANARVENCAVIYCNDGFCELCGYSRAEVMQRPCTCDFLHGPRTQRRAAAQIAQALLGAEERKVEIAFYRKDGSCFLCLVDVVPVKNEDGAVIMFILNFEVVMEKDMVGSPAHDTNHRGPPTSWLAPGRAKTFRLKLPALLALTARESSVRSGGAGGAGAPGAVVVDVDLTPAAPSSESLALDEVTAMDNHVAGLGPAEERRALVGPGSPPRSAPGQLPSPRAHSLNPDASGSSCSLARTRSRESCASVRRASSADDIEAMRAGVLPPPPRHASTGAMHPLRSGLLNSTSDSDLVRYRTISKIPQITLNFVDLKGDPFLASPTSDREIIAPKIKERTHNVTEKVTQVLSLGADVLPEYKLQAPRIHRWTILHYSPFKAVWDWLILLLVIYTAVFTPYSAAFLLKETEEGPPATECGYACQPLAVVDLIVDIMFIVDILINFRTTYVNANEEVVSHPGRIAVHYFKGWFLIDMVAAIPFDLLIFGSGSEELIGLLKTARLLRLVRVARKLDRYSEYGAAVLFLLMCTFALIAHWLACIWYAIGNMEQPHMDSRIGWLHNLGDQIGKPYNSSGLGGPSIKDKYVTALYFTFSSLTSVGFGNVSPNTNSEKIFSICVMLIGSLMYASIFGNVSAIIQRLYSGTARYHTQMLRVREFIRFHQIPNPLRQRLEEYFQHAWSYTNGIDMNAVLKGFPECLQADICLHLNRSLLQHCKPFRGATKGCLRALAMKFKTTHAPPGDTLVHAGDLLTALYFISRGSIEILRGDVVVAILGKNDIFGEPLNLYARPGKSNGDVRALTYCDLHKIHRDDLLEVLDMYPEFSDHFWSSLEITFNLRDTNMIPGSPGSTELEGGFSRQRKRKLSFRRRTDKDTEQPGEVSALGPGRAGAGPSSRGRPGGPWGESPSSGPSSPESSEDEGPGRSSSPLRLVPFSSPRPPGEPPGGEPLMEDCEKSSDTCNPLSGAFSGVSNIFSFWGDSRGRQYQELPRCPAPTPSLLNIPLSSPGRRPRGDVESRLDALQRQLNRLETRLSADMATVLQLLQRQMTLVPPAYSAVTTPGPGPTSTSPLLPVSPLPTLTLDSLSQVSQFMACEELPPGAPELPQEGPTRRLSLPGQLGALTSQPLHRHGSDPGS
row,Structure (SMILES),"hERG current change (%, negative = inhibition) at 1uM [%]"
1,CCCC(=O)Nc1nnc(-c2ccco2)s1,2.66
2,CC(=O)Nc1ccc(NC(=O)C2CC(=O)N(c3cccc(Cl)c3)C2)cc1 (stereo not shown),15
3,Cc1ccc(C)c(Nc2c([N+](=O)[O-])cc(C(=O)N3CC(=O)Nc4ccccc43)cc2[N+](=O)[O-])c1,16.9
4,CCCCN(C)CCCNC(=O)CCn1nc(-c2ccccc2)ccc1=O,-12
5,CC1CCN(C(=O)c2[nH]cnc2C(=O)Nc2nccs2)CC1,16.1
6,Cc1ccc(C)c(OCC(=O)Nc2nc3ccc([N+](=O)[O-])cc3s2)c1C,5.59
7,Cc1c(N2C(=O)SC(CC(=O)O)C2=O)c(=O)n(-c2ccccc2)n1C (stereo not shown),10
8,CC(C)OC(=O)c1ccccc1C(=O)c1ccc(N)c([N+](=O)[O-])c1,8.42
9,O=C(NCc1ccccn1)c1ccc2c(c1)N(Cc1ccccc1)CCS2,7.4
10,COc1ccc(Br)cc1C(=O)Nc1nnn(C)n1,8.9
11,CCCS(=O)(=O)c1nc(S(=O)(=O)c2ccc(C)cc2)c(N2CCCC(C)C2)s1 (stereo not shown),9.79
12,O=C(NNC(=O)c1ccccc1[N+](=O)[O-])c1ccco1,17.8
13,COc1ccc(-c2cn(-c3ccc(C)cc3C)c(=S)[nH]2)cc1OC,12.1
14,C=CCn1c(=O)c2c(nc3n2CCCN3CCc2ccc(OC)c(OC)c2)n(C)c1=O,-47.3
15,Cc1onc(-c2ccccc2)c1C(=O)OCC(=O)NC(=O)c1ccccc1,4.83
16,O=C(COC(=O)CCSc1ccccc1)NCc1ccccc1,5.72
17,Cc1ccc(C)c(N=Nc2ccc(O)c3ncccc23)c1,14.9
18,O=c1[nH]c(=O)n(Cc2ccco2)c(O)c1C=NCc1cccs1,11.2
19,CCN(CC(=O)NCc1ccc(F)cc1)C(=O)/C=C/c1ccc(S(=O)(=O)N(CC)CC)cc1,4.43
20,Cc1ccccc1C(=O)Nc1ccc2nc3n(c(=O)c2c1)CCC3,7.13
21,COc1cccc(Cn2nnc(C(=O)NCc3ccc(F)cc3)c2N)c1,8.23
22,Cc1cc2c(s1)c1cnn(CC(=O)NCCc3ccccc3)c(=O)c1n2C,2.17

row,Structure (SMILES),"hERG current change (%, negative = inhibition) at 1uM [%]"
1,O=C(N/N=C/c1cc([N+](=O)[O-])ccc1O)C1C2CCCCC21 (stereo not shown),13
2,O=C(Cn1ncc2c1-c1ccccc1OC2)Nc1ccc(Cl)cn1,-12.7
3,O=C(NCCc1ccco1)C(=O)NCC1OCCCN1S(=O)(=O)c1cc(F)ccc1F (stereo not shown),4.93
4,CC1Oc2ccccc2N(Cc2ccccc2Cl)C1=O (stereo not shown),22.9
5,CS(=O)(=O)c1ccccc1-c1nc(-c2cc(C(F)(F)F)cc(C(F)(F)F)c2)no1,3.75
6,Cc1cccc(C(=O)NC2CCN(S(=O)(=O)c3ccccc3F)CC2)c1,10.7
7,Cc1ccc(SCc2cc(=O)[nH]c(Nc3nc(C)c4ccccc4n3)n2)cc1,8.32
8,O=C1/C(=C/c2ccc(F)cc2)CCC1C1CCCC1 (stereo not shown),6.15
9,Cc1ccc(S(=O)(=O)C(CCC(=O)c2ccc(Cl)cc2)C(N)=O)cc1 (stereo not shown),-2.59
10,CCOc1ccc2nc(SCC(=O)NC3CC3)sc2c1,2.93
11,COc1ccc(S(=O)(=O)N(C)c2ccc(C(=O)N3CCCC3)cc2)cc1,10.8
12,Cc1nnc(SCC(=O)NC(C)(C)C)n1NCc1ccc(N(C)C)cc1,21.7
13,CCOc1ccc(-n2c(O)c(N=Nc3c(C)n(C)n(-c4ccccc4)c3=O)c(=O)[nH]c2=O)cc1,11.9
14,CC1(C)C(=O)Nc2ccccc2N1C(=O)COC(=O)C12CC3CC(CC(O)(C3)C1)C2,17.7
15,Cn1cc(CN2CCC(n3nccc3NC(=O)CCCc3ccccc3)CC2)cn1,16.5
16,Cc1cc(C)cc(N)c1,3.68
17,Cc1ncoc1C(=O)Nc1ccc2c(c1)OCCO2,-0.892
18,Cc1[nH]c2c(C(F)(F)F)cccc2c1CCN.Cl,4.57
19,O=C(NNc1c2ccccc2nc2ccccc12)c1ccccc1O,10.4
20,CCOC(=O)CCSc1nc(C)cc(C(F)(F)F)c1C#N,13.4
21,Cc1ccc2onc(CC(=O)O)c2c1,16
22,Cc1ccc2nc(Nc3nc(CSc4nc5ccccc5s4)cc(=O)[nH]3)nc(C)c2c1,20.5

row,Structure (SMILES),"hERG current change (%, negative = inhibition) at 1uM [%]"
1,CC(=O)CCSc1ncnc2sc(-c3ccccc3)cc12,21
2,CC(=O)c1cccc(NC(=O)/C(=C\c2cccnc2)NC(=O)c2ccco2)c1,5.81
3,COc1ccc(/C=C2\SC(=S)N(CCCC(=O)Nc3ccccn3)C2=O)cc1OC,17.2
4,COc1ccccc1N=C1SC(C(=O)Nc2ccc(F)cc2)CC(=O)N1C (stereo not shown),-14.8
5,CCN(C(=O)c1cc2c(=O)[nH]c3ccc(C)cc3c2s1)c1ccccc1F,8.96
6,CCC(=O)Nc1cccc(NC(=O)COc2ccc(OC)cc2)c1,-4.41
7,O=C(O)c1cc(O)ccc1N=Nc1ccccc1,17.6
8,O=C1/C(=C/c2cccs2)SC(=S)N1c1cccc(O)c1,12.5
9,CC(=O)NCCC(=O)Nc1nc(-c2ccc3c(c2)OCCO3)cs1,-0.992
10,CC(C)OC(=O)c1c(NC(=O)CCC(=O)O)sc2c1CCCCC2,5.97
11,O=C(Nc1ccccc1)c1ccc(-n2cnnn2)cc1,8.08
12,CC(=O)NS(=O)(=O)c1ccc(NC(=S)Nc2ccccc2)cc1,10
13,COc1cccc(/C=N/NC(=O)C(=O)NCc2cccnc2)c1O,3.36
14,COc1cc(CNc2nnnn2C)cc(OC)c1OC,11.3
15,CN1CCN(C(=O)C2=C[C@@H](c3ccc(Br)cc3)C[C@@H](OCc3ccc(CO)cc3)O2)CC1,-4.96
16,O=C(O)c1cc(Cl)c(Cl)cc1C(=O)N1CCOCC1,17.7
17,O=C(N/N=C/C=C/c1ccco1)c1ccncc1,7.59
18,CCCN(C(=O)c1cc(C)ccc1C)c1c(N)n(Cc2ccccc2)c(=O)[nH]c1=O,20.5
19,COc1ccc(OC)c(NC(=O)CCS(=O)(=O)c2cc3c(cc2C)NC(=O)CO3)c1,9.96
20,O=c1[nH]c(=O)n([C@H]2C[C@H](O)[C@@H](CO)O2)cc1Br,8.21
21,Cc1ccc(NC(=O)CN(C)Cc2ccc(Cl)cc2)cc1,21.3
22,O=C(NCCc1nc2ccccc2[nH]1)/C(=C/c1ccco1)NC(=O)c1ccc(Br)cc1,-34.7

row,Structure (SMILES),"hERG current change (%, negative = inhibition) at 1uM [%]"
1,CCOc1ccc(N2CC(C(=O)Nc3cccc(C(=O)NC4CC4)c3)CC2=O)cc1 (stereo not shown),6.94
2,Cc1ccc(/C=C/C(=O)N2CCc3ccccc32)o1,10.6
3,c1ccc(C2OC3c4cccc5cccc(c45)C3N2c2ccccc2)cc1 (stereo not shown),19.9
4,O=C(NNC(=O)c1ccc(NC(=O)c2ccccc2)cc1)Nc1ccccc1,13.2
5,O=C(Cc1ccc(Cl)cc1Cl)NCC1(N2CCOCC2)CCCCC1,3
6,CCn1cc(C(=O)NCCCN2CCC(C)CC2)c(=O)c2cc(S(=O)(=O)N3CCOCC3)ccc21,7.12
7,CCCN1CCN(C(=O)CS(=O)(=O)Cc2nc(-c3cccc(OC)c3)oc2C)CC1,1.3
8,O=C(CSc1nc2nccnc2c(=O)n1Cc1cccs1)Nc1ccccc1,-6.86
9,S=C(NC1CCCCC1)c1ccc2c(c1)OCO2,3.61
10,Cc1ccc(S(=O)(=O)N(C)C)cc1NC(=O)C(C)[N+]12CCN(CC1)CC2.[Cl-] (stereo not shown),23.4
11,COc1ccc(C(C(=O)NC2CCCC2)N(C(=O)c2snc(C(N)=O)c2N)C2CCCC2)cc1OC (stereo not shown),13.4
12,CCS(=O)(=O)N1CCC(C(=O)NCCCN2CCN(c3ccccc3F)CC2)CC1,-1.04
13,COCCCN1C(=O)C(=O)/C(=C(/O)c2ccc(OC)cc2)C1c1cccc(OC)c1 (stereo not shown),3.46
14,Cc1cccc(NC(=O)C2CC(=O)n3cnnc3S2)c1 (stereo not shown),2.3
15,O=C(CCC(=O)OCC(=O)c1ccccc1)NC1CCCCC1,13.5
16,Cc1ccc(-n2c(C)cc(C(=O)NS(=O)(=O)c3ccc(C)cc3)c2C)cc1,-4.4
17,CC(C)OC(=O)CCCN1C(=O)c2ccc(N)cc2C1=O,11.9
18,O=C(Cc1ccccc1)Nc1cc(C(=O)c2ccccc2)ccc1N1CCOCC1,-5.53
19,CCOC(=O)C1CCN(C(=O)CSc2nc3ncccc3[nH]2)CC1,12
20,CSCCC1NC2(C(=O)Nc3c2ccc(Cl)c3C)[C@@H]2C(=O)N(C3CCCC3)C(=O)[C@H]12 (stereo partly shown),3.44
21,COc1ccc(CNC(=O)Nc2cccs2)cc1OC,7.79
22,c1ccc(CSc2ncnc3c2cnn3-c2ccccc2)cc1,-1.56
